Experimental data reported in the supplement of paper PMC12632987.
Over roughly 4,500 sequences, “median log2 fold change of GCK-ALFA target abundance (FLAG IP / Myc IP barcode read proportion)” has its median near 0.078; the lowest 2% begin near -0.6. This is one part of the list.

B1: GBRAP_160_4795 (protein)
chain: SERVEKVAEIFREEGERALEMSEGESVENRVAIFDVEFGSAIMEAIDLGLLNDEEEEVAVEVRDELVAEIRANPDLTPEELRALIERKVEELRERLEELE
B2: GBRAP_160_4513 (protein)
chain: EEKLKEIFEEIEEAREEILESLDENNVEETIITAEVELGEVIMELAEDESASDEAVDAAAEVRDKLVEELKKNKNASKEELKKIIEEKTEELKKKLKKLF
B3: GBRAP_160_4435 (protein)
chain: SAKLEEAKKRIKEIAEEAAKMMEGQSAEERITVVRVMEGEIILELEELGLLTDELDELIDKSAEEIIETIKANPNISQEELKEMLEKMVEEITKLLEKEF
B4: GBRAP_137_3673 (protein)
chain: MIDAEIEIEDGLAYATLTYKGDLAEAERAAKVAEEIAAEIPGLAISTAVSDDGTLTIDVGGTLEQVMEFLKALAKRLGVTVNVTIKDEDTGETTKETIKA
B5: GBRAP_117_2589 (protein)
chain: SSLREEALKKLRELAERVREALERLKTLSEEERKKLLEELLEETKELLEELLEKLSEEEVWELIDEVAAELDTETYFRFESLVAEALARIKEEREKEELE
B6: GBRAP_83_6921 (protein)
chain: KEEITVAANSDNIEEAFDAAIDLHKNEGYEVSIDVIVKREDIPTLLKAFEKLAKAGVETKLRILLLGATEEEAEELKKKLEEIAKKYGVKIEVEVEAIEE
B7: GBRAP_80_6781 (protein)
chain: AEARIEAEIARVAAIDPELAARLREILAKLRAKGASPAVMAAFAELVAEIARALELGLTEEAREAVEEAEEAAELEDEAERLAMLAGIAGDVLLAVEEAE
B8: GBRAP_26_5495 (protein)
chain: KLEEIIKKLEEELKKILKDESEELRAAVIAEAIDLLLEADEIFEENLDDEEKREKAIEEATKELEELLKDFGLSEEKIEKVVEALRKAMEERLEALKKER
B9: GBRAP_26_5477 (protein)
chain: LEEIERKTLEEIAALLATLPDPDLAAAALAEATTIIIEAIEKMEENKDDEEKLEKIVEEAVKELEEALKELGVPEDVRKKVVEKARKGLEEAKKKILEES
B10: GBRAP_172_5004 (protein)
chain: MVTLVELDLLGLSTEEAVARAVAALRAAAAATGGPIVVAVVTDTQETADAVEAALEAEAAELGREVTVVADAYRSEADRARVLAAARAEAIDLAHELEEE
B11: GBRAP_131_3608 (protein)
chain: LKGLLATIDEDLSVEEALARVDAILDEAIARGYDAVVIRLVGQSAEVYDAAEDRVDEREEELEREHGMRVVVLPPGTTEAEAQAVLEALLLEIELEREEE
B12: GBRAP_160_4489 (protein)
chain: MEKLKEAKEEVRELVELAVEAIAEEKDDSRRQIARAFAGEIAQTLKELGVVTEEQEDEALELAEAGMEAIVAASEAGPAAMEAAAAALVAELEAFLKEAA
B13: GBRAP_160_4528 (protein)
chain: MERLEKIKKKLEETAEEAIELVKGQSAEQRATIVAMEFGSFAMELAEDEEASDEEVDIVLEEEDKLVEEILANPELTDEEIEELIEETVKRIIEKLEKLY
B14: GBRAP_18_5405 (protein)
chain: SSALFEEAWAALSEEVQDFVAEVAGDALSSEDREERIDILVDGLVELAKRHSPEEVLNALLLLLLSVTSTLEEKREVAERVIERVPELRPQAEEALRLTE
B15: GBRAP_128_3329 (protein)
chain: MNEEKIEEAKKLAEEMKKADVEEVKKLTAKLVALMGTASEEEREIIAEIFEEALKELTAEKLDAVADTLREQRPTLDPETQLYVDDLEVEALNEAEEKEE
B16: GBRAP_186_5397 (protein)
chain: ANDEEEHDKLLEELEKKNDIVIIVELDPKDTLEKKKKIMENDVEAMEALAKETGKKVAVVFSVTADKETLEELKKYAEELNKKAKAKSGVEVKLIGTETP
B17: GBRAP_184_5260 (protein)
chain: TVLEEVIEAENVEELRAKLAAVAARALASGADVLLHLEVEELTDEMIDALFDQIAALKAAGYTGRITVGIDADMTEEQIDYAIEKADAAGVNLTVAIPEE
B18: GBRAP_42_5733 (protein)
chain: MTAVTLEVVSHTREEAERNLAEAKKITEEYLAKGEVIVTYEIAAPEEAADLAAEAEARAKEIRATADKESEWVVVAGPGEDLREAAEIAVDIAKMELEEE
B19: GBRAP_184_5198 (protein)
chain: KVTEVELEAENLEEVKKKMEELREIAKREKADLVVILKLKEVTKEMVETIMSTMKEIKEEGLSPNITLEIVGKMSEENIDLAIKLADEAGVNLVLALDEE
B20: GBRAP_52_6158 (protein)
chain: AAARAEALADAILAAVRAGDEARLRALLEEAARTLSDEELSALLDHIAAAVAGLSPADAEAVVDAAIRFEDLAVAAGHDEELLSYQLARVAAAAYAQLQA
B21: GBRAP_43_5790 (protein)
chain: MKEIVEGALDFARTALETPEITDETKARIVVDAIDFAADEGVLTKEQLRELLELLERSVSLETALEALERILKRLKELGAPQELLDTVEEALERVRKELA
B22: GBRAP_52_5887 (protein)
chain: KLEEAVALLKAMIEAVKAGDEEEARALAKEIVENFDEETILAAVERVAEELLDATLEEAKAFWEAAELLSEVLLEKGGSEEIASYIEAIAGATLYKVEQK
B23: GBRAP_52_6189 (protein)
chain: MREEIREKVLEILELVKEGKEEEARKKARELVESLNEEELKLLVEVLAEVAAEAPLEDDDAVFRLAEILAEAIEEAGKDEALAEDLLAAVAAALYAKEQA
B24: GBRAP_166_4893 (protein)
chain: MVEEAIKKIKEIAEKTIANIKELTLEEIQESFIEMAEIVEKAGETPELIETAAEEATKVVVEAVKAGFDREELESLALAAFGSNEELLDVLEAKLEAAKA
B25: GBRAP_184_5077 (protein)
chain: AVKEEVIEVENLAEAREKLAALAEKIKDFKGTLVVHVKMPKAERETLEAILEGLAAIKKAGYVTDVTVGFDADVTEEQVDFIVDTADRLGVRVVLALPEE
B26: GBRAP_160_4367 (protein)
chain: SEELKKLAEEIRKLLEELKELAKDLTPEEVRTLALGVLAEIAALVWSNPAISDEVEDKIMEIIDKAEEEIRANEDATPEEILEITTKAIEEIIALIEEEA
B27: GBRAP_78_6708 (protein)
chain: SVEEKLEEAIEHLGKAAKLLVKIGTELANDALGHLVDAITYLWEAIEEGADLELLEEARKHLEKAIELAKKLDVPEKEEILKHLEEALKLVDEAIKEVKK
B28: GBRAP_43_5765 (protein)
chain: SKELVDGAFDFALLMLEEPEIPEEQKVKAIQAAFELAADEGYVDQEKVDAVVKAAAATLSAENLKKILKAIEEIAKKYPELKETLDKAAKALKKAIKAKE
B29: GBRAP_80_6841 (protein)
chain: AEAALAAARAKLYALLPEAKPLLDEVIALAKELGVPDSVIADYVAALAELAAKDPAAAKALLEELLEDLKELKAEGDTANAEAVVRGYAGEALMQAEELE

Each binder was assayed against GABARAP, O95166 (assay: median log2 fold change of GCK-ALFA target abundance (FLAG IP / Myc IP barcode read proportion) (log2 ratio); each designed protein is fused to an ALFA-tag nanobody in HEK293 cells to bring the named protein to FLAG-tagged glucokinase (GCK); Myc marks an untargeted standard; higher = target protein stabilised (more abundant)). Conditions: target protein: 3xFLAG-MCP-GCK-ALFA reporter; HEK293 landing pad (RPLP).
Chain of GABARAP, O95166 (O95166 whole entry, the tested form may be a part): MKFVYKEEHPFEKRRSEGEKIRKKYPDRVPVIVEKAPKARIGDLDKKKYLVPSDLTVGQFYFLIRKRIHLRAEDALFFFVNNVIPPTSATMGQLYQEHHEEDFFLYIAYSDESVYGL
How it was run: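 The readout is target abundance, the per-binder median log2 ratio of FLAG to Myc barcode read proportions. It came from HEK293 landing-pad cells carrying a recombined ALFA-nanobody-fused binder library, induced with 2 μg mL^−1 doxycycline and transfected with a plasmid for a FLAG-tagged target and a Myc-tagged standard. After 48 h, lysates were immunoprecipitated with anti-FLAG and anti-Myc, and circular RNA barcodes were reverse transcribed, amplified and sequenced. Each barcode needed a proportion of at least 10^−7 in both replicates and each binder at least 3 barcodes per replicate, a pseudocount of 10^−6 was added, and the replicates were pooled.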
B1 was tested, and the “median log2 fold change” value was -0.0177. In the case of B2, the “median log2 fold change” value is reported as -0.245. B3 was tested, and the “median log2 fold change” value was 0.00808. With B4 the “median log2 fold change” value was -0.148. For B5, the “median log2 fold change” value was 0.0984. With B6 the “median log2 fold change” value was 0.136. B7 was tested, and the “median log2 fold change” value was 0.0599. For B8, the “median log2 fold change” value was 0.242. B9 was tested, and the “median log2 fold change” value was 0.2. B10 was tested, and the “median log2 fold change” value was 0.163. For B11, the “median log2 fold change” value was -0.193. B12 was tested, and the “median log2 fold change” value was 0.167. In the case of B13, the “median log2 fold change” value is reported as -0.278. In the case of B14, the “median log2 fold change” value is reported as -0.298. In the case of B15, the “median log2 fold change” value is reported as -0.0881. With B16 the “median log2 fold change” value was 0.165. For B17, the “median log2 fold change” value was 0.0342. B18 was tested, and the “median log2 fold change” value was 0.222. With B19 the “median log2 fold change” value was 0.0431. B20 was tested, and the “median log2 fold change” value was -0.0469. In the case of B21, the “median log2 fold change” value is reported as -0.0375. In the case of B22, the “median log2 fold change” value is reported as 0.0559. For B23, the “median log2 fold change” value was 0.105. B24 was tested, and the “median log2 fold change” value was 0.127. In the case of B25, the “median log2 fold change” value is reported as 0.0579. In the case of B26, the “median log2 fold change” value is reported as 0.288. B27 was tested, and the “median log2 fold change” value was -0.136. For B28, the “median log2 fold change” value was 0.325. For B29, the “median log2 fold change” value was 0.0765.
